Reference: a collection of fitness landscapes (doi:10.1016/j.celrep.2020.107928)
Whole data set: some 81,000 sequences, median “one-hybrid fitness for binding parS DNA” near -0.17, cut for the highest 2% near 0.51. The list shows a part of the results.

B1: Caulobacter ParB omega fusion; a variant is named by its letters at X, in order, B8GW30 (parent)
chain: MESVVVGEPGMSEGRRGLGRGLSALLGEVDAAPAQAPGEQLGGSREAPIEILQRNPDQPRRTFREEDLEDLSNSIREKGVLQPILVRPSPDTAGEYQIVAGERAWRAAQRAGLKTVPIMVRELDDLAVLEIGIIENVQRADLNVLEEALSYKVLMEKFERTQENIAQTIGKSXSHVANXMRLLXLPDEVQSYLVSGELTAXHARAIAAAADPVALAKQIIEGGLSVRETEALARKAPNLSAGKSKGGRPPRVKDTDTQALESDLSSVLGLDVSIDHRGSTGTLTITYATLEQLDDLCNRLTRGI

Variants of: B1
Test: one-hybrid fitness for binding parS DNA (scaled: cognate 1, non-cognate 0); higher = stronger binding
Settings: with parS DNA site
Summary of the method: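 In E. coli USO, a HIS3 reporter with its site placed 19 bp from the promoter was used to select Caulobacter ParB variants randomised at four specificity codons. Growth lasted 48 hours at 37°C on histidine-free M9 containing 0.1 mM IPTG and 5 mM 3-AT. Fitness was taken as the log change in variant-to-wild-type read ratio from Illumina sequencing of pre- and post-selection plasmids, rescaled between the non-cognate and cognate sites.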

Variant	one-hybrid fitness for binding parS DNA
QVHF	≤ 0.2
GSMC	≤ 0.2
ITFG	≤ 0.2
QFSC	≤ 0.2
IEPV	≤ 0.2
LLPQ	≤ 0.2
NHAA	≤ 0.2
PKHS	≤ 0.2
EQTR	≤ 0.2
YNSE	≤ 0.2
HMPI	≤ 0.2
CSSE	≤ 0.2
HYVC	≤ 0.2
LDNG	≤ 0.2
DMVL	≤ 0.2
KELI	≤ 0.2
WIKR	≤ 0.2
VRND	≤ 0.2
IRCT	≤ 0.2
GMKG	≤ 0.2
NTRW	≤ 0.2
RHCI	≤ 0.2
YPTT	≤ 0.2
FCPS	≤ 0.2
PKNG	≤ 0.2
EPKL	≤ 0.2

Variant	one-hybrid fitness for binding parS DNA
IIPN	≤ 0.2
IKES	≤ 0.2
LLPG	≤ 0.2
WCRA	≤ 0.2
IRQM	≤ 0.2
GECS	≤ 0.2
NGRA	≤ 0.2
AQDC	≤ 0.2
ACKD	≤ 0.2
ILTF	≤ 0.2
RACG	0.971
IWNT	≤ 0.2
METS	≤ 0.2
QKDY	≤ 0.2
ACYT	≤ 0.2
IEIV	≤ 0.2
RGLT	0.456
SHYF	≤ 0.2
RSTR	≤ 0.2
PSVI	≤ 0.2
TEDR	≤ 0.2
RITH	0.214
DTND	≤ 0.2
GLPS	≤ 0.2
RWHV	≤ 0.2
ILDT	≤ 0.2

Variant	one-hybrid fitness for binding parS DNA
ECSC	≤ 0.2
HFTD	≤ 0.2
CQAS	≤ 0.2
VSYM	≤ 0.2
IYNY	≤ 0.2
LRQN	≤ 0.2
YWGS	≤ 0.2
PTHL	≤ 0.2
VRFS	≤ 0.2
HGPW	≤ 0.2
HVRL	≤ 0.2
RACA	0.609
TPSS	≤ 0.2
NHRD	≤ 0.2
FGPV	≤ 0.2
RQFY	0.398
KRVP	≤ 0.2
KLGI	≤ 0.2
RDMG	≤ 0.2
CYLR	≤ 0.2
NYDF	≤ 0.2
NNAS	≤ 0.2
TLNM	≤ 0.2
FMAR	≤ 0.2
TARP	≤ 0.2
DDAG	≤ 0.2

Variant	one-hybrid fitness for binding parS DNA
MVCS	≤ 0.2
YSWR	≤ 0.2
CSRC	≤ 0.2
PQLC	≤ 0.2
CPCS	≤ 0.2
QWDS	≤ 0.2
TAYC	≤ 0.2
LPRC	≤ 0.2
CFMT	≤ 0.2
IDDF	≤ 0.2
ATMR	≤ 0.2
CSIA	≤ 0.2
KKER	≤ 0.2
GIPF	≤ 0.2
ETNR	≤ 0.2
TAKY	≤ 0.2
QYNA	≤ 0.2
SFSM	≤ 0.2
NYCG	≤ 0.2
HNKD	≤ 0.2
HYYR	≤ 0.2
MMCG	≤ 0.2
MHSF	≤ 0.2
ENQR	≤ 0.2
SFND	≤ 0.2
VCLL	≤ 0.2

Variant	one-hybrid fitness for binding parS DNA
LQNM	≤ 0.2
ECRD	≤ 0.2
FYAS	≤ 0.2
MLKY	≤ 0.2
WQNC	≤ 0.2
LRHR	≤ 0.2
RHYQ	≤ 0.2
IQEL	≤ 0.2
WTRR	≤ 0.2
QHLY	≤ 0.2
LVLE	≤ 0.2
IAGI	≤ 0.2
GQDG	≤ 0.2
EVRS	≤ 0.2
SWEG	≤ 0.2
TVRA	≤ 0.2
AANS	≤ 0.2
ESRF	≤ 0.2
SNAL	≤ 0.2
VMAC	≤ 0.2
LMVN	≤ 0.2
KYGP	≤ 0.2
AAWR	≤ 0.2
GEAL	≤ 0.2
KREM	≤ 0.2
THFR	0.256

Variant	one-hybrid fitness for binding parS DNA
SDPH	≤ 0.2
WVLY	≤ 0.2
TTNM	≤ 0.2
ENVT	≤ 0.2
IHII	≤ 0.2
RRPD	≤ 0.2
RRIT	0.693
CQTR	≤ 0.2
FMHG	≤ 0.2
LSLT	≤ 0.2
FRDF	≤ 0.2
TLSP	≤ 0.2
AGKM	≤ 0.2
NSTW	≤ 0.2
GGRF	≤ 0.2
VEFR	≤ 0.2
QYTM	≤ 0.2
GGTY	≤ 0.2
LARR	≤ 0.2
FITM	≤ 0.2
TDLA	≤ 0.2
ETYR	≤ 0.2
SLFP	≤ 0.2
